Test results published in the RNAGym collection of RNA variant scans (doi:10.7554/elife.90254).
The source gives no read counts; variants with many changes may rest on few reads.

B1: LINE1-full (parent)
chain: UACGUAGGUGGUUUUCCCCUGAUAGUGCUAAGGGGGCCUGGAAGUUUGGACUGGGCAGAGCUCAACACAGCGUGGCAAAGUGGCUGUGGCUAGACUGCCUCUCUGGAUUCCUCGUCACUCAGCAGGGCAUCUCUGAGAGAAAUGCC

Variants of: B1
Test: self-cleavage, relative activity (ratio to wild type); higher = more cleavage; in vitro, sequencing; the parent is a self-cleaving ribozyme

**Q.** Which self-cleavage does the source give for UACGUAGGUGGUCCUCCCCUGACAGUGCUAAGGGGGCCUGGAAGUUUGGACUGGGCAGAGCUCAACACAGCGUGGCAAAGUGGCUGUGGCUAGACUGCCUCUCUGGAUUCCUUGUCACUCAGCAGGGCAUCUCUGAGAGAAAUGCC here?
**A.** 1.53

**Q.** For UGCGUAGGUGGUUUACCCCUGAUAGUGCUAAGGGGGCCUGGAAGUUUGGACUGGGCAGAGCUCAACACAGCGUGGCAAAGUGGCUGUGGCUAGACUGCCUCUCUGGAUUCCUCGUCACCCAGCAGGGCAUCUCUGAGAGAAAUGCC, which self-cleavage is on record?
**A.** 0.58

**Q.** For UACGUAGGUGGUUUUCCCCUGAAAGUGCUAAGGGGGCCUGGAAGUUUGGACUGGGCAGAGCCCAACACAGCGUGGCAAAGUGGCUGUGGCUAGACUGCCUCUCUGGGUUCCUCGUCACUCAGCAGGGCAUCUCUGAGGGAAAUGCC, which self-cleavage is on record?
**A.** 0.24

**Q.** For UACGUAGGUGGUUUUCCCCUGAUAGUGCUAAGGGGGUCUGGAAGUUUGGACUGGGCAGAGCUCAACACAGCGUGGCAAAGUGGCUGUGGCUAGACUGCCUCUCUGGAUUCCUCGUCACUCAGCAGGGCAACCCUGAGAGAAAUGCC, which self-cleavage is on record?
**A.** 1.46

**Q.** With UACGUAGGUGGUUUUCCCCUGAUAGUGCUAAGGGGGCCAGGGAGUUUGGACUGGGCAGAGCUCAACACAGCGUGACAAAGUGGCUGUGGCUAGACUGCCUCUCUGGAUUCCUCGUCACUCAGCAGGGCAUCUCUGAGAGAAAUGCC as the variant, how does the self-cleavage read?
**A.** 0.94

**Q.** With UACGUAGGUGGUUUUCCCCUGAUAGUGCUAAGGGGGCCUGGAGGUUUGGACUGGGCAGAGCUCAACACAGCGUGGCAGAGUGGCUGUGGCUAGACUGCCUCUCUGGAUUCCUCGUCACUCAGCAGGGCAUCUCUGAGGGAAGUGCC as the variant, how does the self-cleavage read?
**A.** 1.53

**Q.** For UACGUAGGUGGCUUUCCCCUGGUAGUGCUAAGGGGGCCUGGAAGUUUGGACUGGGCAGAGCUCAACACAGCGUGGCAAAGUGGCUGUGGCUAGACUGCCUCUCUGGAUUCCUCGUCACUCUGCAGGGCAUCUCCGAGAGAAAUGCC, which self-cleavage is on record?
**A.** 1.44

**Q.** With UACGUAGGUGGUUUUCCCCUGAUAGUGCUAAGGGGGCCUGGAAGUUUGGACUGGGCAGGGCUCAACGCAGCGUGGCAGAGUGGCUGUGGCUAGACUGCCUCUCUGGAUUCCUCGUCACUCAGCAGGGCAUCUCUGAGAGAAAUGCC as the variant, how does the self-cleavage read?
**A.** 0.12

**Q.** With UACGCAGGUGGUUUUCCCCUGAUAGUGCUAAGGGGGCCUGGAAGUUUGGACUGGGCAGAGCUCAACACAGUGUGGCAAUGUGGCUGUGGCUAGACUGCCUCUCUGGACUCCUCGUCACUCAGCAGGGCAUCUCUGAGAGAAAUGCC as the variant, how does the self-cleavage read?
**A.** 1.31

**Q.** For AACGUAGGUGGUUUUCCCCUGAUAGUGCUAAGGGGGCCUGGAAGUUAGGACUGGGCAGAGCUCAACACAGCGUGGCAAGGUGGCUGUGGCUAGACUGCCUCUCUGGAUUCCUCGUCACUCAGCAGGGCAUCUCUGAGAGAAAUGCC, which self-cleavage is on record?
**A.** 0.68

**Q.** With UACGUAGGUGGUUUUCCCCUGGUAGUGCUAUGGGGGCCUGGAAGUUUGGACUGGGCAGAGCCCAACACAGCGAGGCAAAGUGGCUGUGGCUAGACAGCCUCUCUGGAUCCCCCGUCACUCAGCAGGGCAUCUCUGAGAGAAAUGCC as the variant, how does the self-cleavage read?
**A.** 0

**Q.** For UACGUAGGUGGUUUUCCCCUGAUAGUGCUAAGGGGGCCUGGAAGUUUGGACUGGGCAGAGCUCAACACGGCGUGGCAAAGUGGCUGUGGCUAGACUGCCUCUCUGGGUUCCUCGUCACUCAGCAGGGCAUCUCUGAGAGAUAUGCC, which self-cleavage is on record?
**A.** 0.84

**Q.** For UACGUAGGUGGUUUUCCCCUGAUAGUGCUAAGGGGGCCUGGAAGUUUGGACUGGGCGGAGCUCAACACAGCGUGGCAAAGUGGCUGUGGCUAGACUGCCUCUCUGGAUUCCUCGUCACUCAGCAGGGCAUCCAUGAGAGAAACGCC, which self-cleavage is on record?
**A.** 0.63

**Q.** With UACGUGGGUGGUCUUCCCCUGAUAGUGCUAAGGGGGCCUGGAAGUUUGGCCUGGACUGGGCUCAACACAGCGUGGCAAAGUGGCUGUGGCUUGACUGCCUCUCUGGAUUCCUCGUCACUCAGCAGGGCAUCUCUGAGAGAAAUGCC as the variant, how does the self-cleavage read?
**A.** 0.47

**Q.** With UACGUAGGUGGUUUUCCCCUGAUAGUGCUAAGUGGGCCUGGUAGUUUGGACUGGGCAGAGCUCAACACAGCGUGGCAAAGUGGCUGUGGCUAGACUGCCUCUCUGGAUUCCUCGUCACUCAGCAGGGCAUCUCUGAGGGAAAUGCC as the variant, how does the self-cleavage read?
**A.** 0.91

**Q.** For CACGUAGGUGGUUUUCCCCUGAUAGUGCCAAGGGGGCCUGGAAGUUUGGACUGGGCAGAGCUCAACACAGCGUGGCAAAGUGGCUGUGGCUAGUCUGCCUCUCUGGAUUCCUCGUCACUCAGCAGGGCAUCUCUGAGGGAAAUGCC, which self-cleavage is on record?
**A.** 0.41

**Q.** With UACGUAGGUGGUUUUCCCCUGAAAGUGCUAAGGGGGCCUGGAAGUUUGGACUGGGCAGAGCUCAACACAGCGUGGCAAAGUGGCUGUGGCUAGACUGCCUCUCUGGAUACCUCGUCACUCAGCAGGGCAUCUCUGAGAGAAGUGCC as the variant, how does the self-cleavage read?
**A.** 1.18

**Q.** Which self-cleavage does the source give for UACGUAGGUGGUUUUCCCCUGGUAGUGCUGAGGGGGCCUGGAAGUUUGGACUGGGUAGAGCCCAACACAGCGUGGCAAAGUGGCUGUGGCUAGACUGCCUCUCUGGAUUCCUCGUCACUCAGCAGGGCAUCUCUGAGAGAAAUGCC here?
**A.** 0.12

**Q.** Which self-cleavage does the source give for UACGUAGGUGGUUUCCCCCUGAUAGUGCUAAGGGGGCCUGGAAGUUUGGACUGGGCAGGGCUCAACACAGCGUGGCAAAGUGGCUGUGGCUAGACUGCCUCUCCGGAUUCCUCGUCACUCAGCAGGGCAUCUCUGAGAGAAAUGCC here?
**A.** 0

**Q.** With UACGUAGGUGGCUUUCCCCUGAUAGUGCUAAGGGGGCCUGGAAGUUUGGACUGGGCAGAGCUCAACACAGCGUGGCUAAGUGGCUGUGUCUAGACUGCCUCUCUGGAUUCCUCGUCACUCAGCAGGGCAUCUCGGAGAGAAAUGCC as the variant, how does the self-cleavage read?
**A.** 0.04

**Q.** For UACGUAGGUGGUUUUCCCCUGAUAGUGCUAAGGGGGCCUGGAAGUUUGGACUGGGCAGAGCUCAACACAGCGUGGCGAAGUGGCUGUGGCUAGGCUGCCUCUCUGGAUUCCUCGUCACUCAGCAGGGCUUCUCUGAGAGAAAUGCC, which self-cleavage is on record?
**A.** 0.22

**Q.** For UACGUAGGUGGUUUUCCCCAGAUAGUGCUACGGGGGCCUGGAAGUUUGGACUGGGCAGAGCUCAACACAGCGUGGCAAAGUGGCUGUGGCUAGACUGCCUCCCUGGAUUCCUCGUCACUCAGCAGGGCAUCUCUGAGAGAAAUGCC, which self-cleavage is on record?
**A.** 1.62

**Q.** Which self-cleavage does the source give for UACGUAGGUGGUUUUCCCCUGAUAGUGCUAAGGGGGCCUGGAAGUUUGGACUGGGCAGAGCUCAACACAGCGUGGCAAAGUGGCUGUGGCCAGACUGCCUCUCUGGAUUCCUCGUCACCCAGCAGGGCACCUCUGAGAGAAAUGCC here?
**A.** 0

**Q.** For UACGUAGGUGGUUUUCCCCUGAUUGUGCUAAGGGGGCCUGGAAGUUUGGACUGGGCAGAGCUCAACACAACGUGGCAAAGUGGCUGUGGCUAGACUGCCUCCCUGGAUUCCUCGUCACUCAGCAGGGCAUCUCUGAGAGGAAUGCC, which self-cleavage is on record?
**A.** 0.2

**Q.** For UACGUAGGUGGUUUUCCCCUGAUAGUGCUAAGGGGGCCUGGAAGGUUGGACUGGGCAGAGCUCAACACAGCGUGGCAAAGUGGCUGUGGCUAGGCUGCCUCUCAGGAUUCCUCGUCACUCAGCAGGGCAUCUCUGAGAGAAAUGCC, which self-cleavage is on record?
**A.** 0

**Q.** With UACGUAGGUGGUUUUCCCCUGAUAGUGCCAAGGGGGCCUGGAAGUUUGGACUGGGCAGAGCUCAACGCAGCGUGGCAAAGUGGCUGUGGCUAGACUGCCUCUCUGGAUUCCUCGUCACUCUGCAGGGCAUCUCUGAGAGAAAUGCC as the variant, how does the self-cleavage read?
**A.** 0.14

**Q.** With UACGUAGGUGGUUUUCCCCUGAUAGUGCUAAAGGGGCCUGGAAGUUUGAACUGGGCAGAGCUCAACACAGCGUGGCAAAGUGGCUGUGGCUAGACUGCCUCUCUGGGUUCCUCGUCACUCAGCAGGGCAUCUCUGAGAGGGAUGCC as the variant, how does the self-cleavage read?
**A.** 1.31

**Q.** For UUCGUAGGUGGUUUUCCCCUGAUAGUGCUAAGGGGGCCUGGAAGUUUGGACUGGGCAGAGCCCAACACAGCGUGGCAAAGUGGCUGUGGCUAGACUGCCUCUCUGGAUUCCUCGUCACACAGCAGGGCAUCUCUGAGAGAAAUGCC, which self-cleavage is on record?
**A.** 0.19

**Q.** Which self-cleavage does the source give for UACGUAGGUGGCUUUCCCCUGAUAGUGCUAAGGGGGCCUGGAAGUUUGGACUGGGCAGAGCUCAACACAGCGUGGCAAGGUGGCUGUGGCUAGACUGCCUCUCUGGAUUCCACGUCACUCAGCAGGGCAUCUCUGAGAGGAAUGCC here?
**A.** 1.14

**Q.** With UACGUAGGUGGUUUUCCCCUGUUAGUGCUAAGGGGGCCUGGGAGUUUGGACUGGGCAGAGCUCAACACAGCGUGGCAAAGUGGCUGUGGCUAGACUGCCUCUCUGGAUUCCUCGUCACUCAGCAGGGCAUCCCUGAGAGAAGUGCC as the variant, how does the self-cleavage read?
**A.** 1.84

**Q.** Which self-cleavage does the source give for UACGUAGGUGGUUUUCCCCUGAUAGUGCUAAGGGGGCCUGGAGGUUUGGACUGGGCAGAGCUCAACACAGCGUGGCAAAGUGGCUGUGGCUAGACGGCCUCUCAGGAUUCCUCGUCACUCAGCAGGGCAUCUCUGAGAGAAAUGCC here?
**A.** 0.27

**Q.** For UACGUAGGUGGUUCUCCCCUGAUAGUGCCAAGGGGGCCUGGAGGUUUGGACUGGGCGGAGCUCAACACAGCGUGGCAAAGUGGCUGUGGCUAGACUGCCUCUCUGGGUUCCUCGUCACUCAGCAGGGCAUCUCUGAGAGAAAUGCC, which self-cleavage is on record?
**A.** 0

**Q.** With UACGUAGGUGGUUUUCCCCUGAUAGUGCUAAGGGGGCCUGGAAGUUUGGGCUGGGCAGAGCUCAACACAGCGUGGCAAAGUGGCUGUGGCUAGACUGUCUCUCUGGAUUCCACGUCACCCAGCAGGGCAUCUCUGAGAGGAAUGCC as the variant, how does the self-cleavage read?
**A.** 0.45

**Q.** For UACGUAGGUGGUUUUCCCCUGAUAGUGCUAAGGGGGCCUGGUAGUUUGGACUGGGCAGAGCUCAACACAGCGUGGCAUAGUGGCUGUGGCUAGACUGCCUCUCUGGAUUCCUCGACACUCAGCAGGGCAUCUCUGAGAGAAAUGCC, which self-cleavage is on record?
**A.** 1.06

**Q.** Which self-cleavage does the source give for UACGUAGGUGCUUUUCCCCUGAUAGUGCUAAGGGGGCCUGGAAGUUUGGACUGGGCAGAGCUCUACACAGCGUGGUAAAGUGGCUGAGGCUAGACUGCCUCUCUGGAUUCCUCGUCACUCAGCAGGGCAUCUCUGAGAGAAAUGCC here?
**A.** 0.1

**Q.** For UACGUAGGUGGUUUUCCCCUGAUAGUGCUAAGGGGGCCUGGAAGUUUGGACUGGGCAGAGCUCAACACAGCGUGGCUAAGUGGCUGUGGCUAGACUGCCUCUCGGUAUUCCUCGUCACUCAGCAGGGCAUCUCUGAGAGAAAUGCC, which self-cleavage is on record?
**A.** 1.04

**Q.** For UACGUAGGUGGUAUUCCCCUGAUAGUGCUAAGGGGGCCUGGAAGUUUGGACUGGGCAGAGCUCAACACUGCGUGGCAAAGUGGCUGUGGCUAGACUGCCUCUCUGGAUUCCUCGUCACUUAGCAGGGCAUCUCUGAGAGAAAUGCC, which self-cleavage is on record?
**A.** 0.06

**Q.** For UACGUAGGUGGUUUUCCCCUGAUAGUGCUAAGGGGGCCUGGAAGUUUGGACUGGGCAGAGCUCAACACAGCGUGGCAAAGUGGCUGCGGCUAGUCUGCCUCUCUGGAUUCCUCGUCACUCAGCAGGGCAUCUCUGAGAGAAGCGCC, which self-cleavage is on record?
**A.** 0.36

**Q.** For UACGUAGGUGCUUUUCCCCUGAUAGUGCUAAGGAGGCCUGGAAGUUUGGACUGGGCAGAGCUCAACACAGCGUGGCAAAGUGGCUGUGGCUAGACCGCCUCUCUGGAUUCCUCGUCACUCAGCAGGGCAUCUCUGAGAGAAAUGCC, which self-cleavage is on record?
**A.** 0.1
